Source: PMC10442006
Where two headings read alike, the source gives them in different places. These are yes or no findings as the source states them, for the method shown. For some of these results: Binding seen in cells or lysates may run through a third protein. Some results given as binding are weak or reduced against the parent protein; the word gives no strength. Where a sequence is shown, tags or fusion partners need not be part of it.

The chains behind the UniProt entries cited, without tags or fusion partners.
UniProt A4GSN8: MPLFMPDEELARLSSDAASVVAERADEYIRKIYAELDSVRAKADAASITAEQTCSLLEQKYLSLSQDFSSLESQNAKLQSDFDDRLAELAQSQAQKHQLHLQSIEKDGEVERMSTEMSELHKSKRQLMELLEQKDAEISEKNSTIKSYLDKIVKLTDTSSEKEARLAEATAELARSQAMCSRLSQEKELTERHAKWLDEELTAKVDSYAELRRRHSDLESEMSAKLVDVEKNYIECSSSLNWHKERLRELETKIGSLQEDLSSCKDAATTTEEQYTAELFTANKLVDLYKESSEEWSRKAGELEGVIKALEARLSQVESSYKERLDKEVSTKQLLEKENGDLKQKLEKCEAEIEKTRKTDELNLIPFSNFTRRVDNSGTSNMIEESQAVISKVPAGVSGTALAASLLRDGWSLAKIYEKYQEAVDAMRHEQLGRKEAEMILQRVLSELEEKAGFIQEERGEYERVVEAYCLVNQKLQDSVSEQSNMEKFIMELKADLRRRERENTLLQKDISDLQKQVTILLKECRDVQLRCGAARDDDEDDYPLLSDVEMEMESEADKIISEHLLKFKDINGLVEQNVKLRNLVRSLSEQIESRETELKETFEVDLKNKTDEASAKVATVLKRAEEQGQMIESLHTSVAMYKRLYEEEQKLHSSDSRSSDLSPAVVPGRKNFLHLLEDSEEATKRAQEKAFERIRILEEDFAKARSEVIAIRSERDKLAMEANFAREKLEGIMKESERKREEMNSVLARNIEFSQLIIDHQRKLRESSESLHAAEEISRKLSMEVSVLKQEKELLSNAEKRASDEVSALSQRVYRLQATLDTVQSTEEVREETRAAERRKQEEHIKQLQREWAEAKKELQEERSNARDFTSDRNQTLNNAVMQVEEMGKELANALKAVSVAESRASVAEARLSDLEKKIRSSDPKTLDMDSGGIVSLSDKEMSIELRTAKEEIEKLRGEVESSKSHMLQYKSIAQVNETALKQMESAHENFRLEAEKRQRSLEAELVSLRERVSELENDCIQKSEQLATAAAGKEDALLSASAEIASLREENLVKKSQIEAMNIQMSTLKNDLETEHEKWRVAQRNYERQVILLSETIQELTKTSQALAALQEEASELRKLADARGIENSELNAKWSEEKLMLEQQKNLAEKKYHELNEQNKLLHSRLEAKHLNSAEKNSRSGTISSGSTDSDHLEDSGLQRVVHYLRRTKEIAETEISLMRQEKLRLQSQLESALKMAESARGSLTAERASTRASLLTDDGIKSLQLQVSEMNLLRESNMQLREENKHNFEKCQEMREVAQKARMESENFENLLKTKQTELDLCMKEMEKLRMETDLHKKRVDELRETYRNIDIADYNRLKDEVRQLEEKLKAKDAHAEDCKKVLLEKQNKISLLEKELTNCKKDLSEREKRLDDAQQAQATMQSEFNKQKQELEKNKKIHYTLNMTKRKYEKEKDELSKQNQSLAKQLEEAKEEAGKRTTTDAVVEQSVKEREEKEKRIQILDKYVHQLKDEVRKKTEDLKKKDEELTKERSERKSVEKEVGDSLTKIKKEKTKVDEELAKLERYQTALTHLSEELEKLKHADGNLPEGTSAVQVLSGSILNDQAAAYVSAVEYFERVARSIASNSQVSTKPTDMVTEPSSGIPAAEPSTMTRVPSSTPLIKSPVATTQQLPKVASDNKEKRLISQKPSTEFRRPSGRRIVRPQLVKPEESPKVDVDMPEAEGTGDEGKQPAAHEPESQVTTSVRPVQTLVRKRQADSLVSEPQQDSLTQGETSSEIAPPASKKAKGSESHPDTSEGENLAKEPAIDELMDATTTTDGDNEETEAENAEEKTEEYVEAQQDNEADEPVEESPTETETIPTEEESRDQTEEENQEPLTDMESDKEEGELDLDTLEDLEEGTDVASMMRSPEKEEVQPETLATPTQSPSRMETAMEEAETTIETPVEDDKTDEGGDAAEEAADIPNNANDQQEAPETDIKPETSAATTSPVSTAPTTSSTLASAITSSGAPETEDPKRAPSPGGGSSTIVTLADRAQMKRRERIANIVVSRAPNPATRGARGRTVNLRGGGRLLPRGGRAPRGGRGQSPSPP

Assays:
[1] = biological target: T1, SnRK2.3-nLUC (Arabidopsis thaliana) (UniProt Q39193); experiment: split reporter; split-luciferase complementation (LCI): cLUC and nLUC fusions co-infiltrated by A. tumefaciens GV3101 into N. benthamiana leaves; LUC signal with 1 mM D-luciferin about 2 days after infiltration
T1 sequence: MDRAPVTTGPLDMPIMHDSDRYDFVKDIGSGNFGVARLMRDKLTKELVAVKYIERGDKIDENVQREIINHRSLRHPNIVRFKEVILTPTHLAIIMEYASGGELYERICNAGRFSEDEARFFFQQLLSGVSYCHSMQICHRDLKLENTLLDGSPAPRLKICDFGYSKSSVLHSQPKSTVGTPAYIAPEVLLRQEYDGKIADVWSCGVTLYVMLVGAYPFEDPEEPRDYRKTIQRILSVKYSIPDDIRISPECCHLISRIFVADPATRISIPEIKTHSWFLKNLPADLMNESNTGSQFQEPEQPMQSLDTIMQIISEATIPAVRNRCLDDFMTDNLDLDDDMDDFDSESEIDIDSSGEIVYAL

[2] = biological target: T2, SnRK2.2-nLUC (Arabidopsis thaliana) (UniProt Q39192); experiment: as above
T2 sequence: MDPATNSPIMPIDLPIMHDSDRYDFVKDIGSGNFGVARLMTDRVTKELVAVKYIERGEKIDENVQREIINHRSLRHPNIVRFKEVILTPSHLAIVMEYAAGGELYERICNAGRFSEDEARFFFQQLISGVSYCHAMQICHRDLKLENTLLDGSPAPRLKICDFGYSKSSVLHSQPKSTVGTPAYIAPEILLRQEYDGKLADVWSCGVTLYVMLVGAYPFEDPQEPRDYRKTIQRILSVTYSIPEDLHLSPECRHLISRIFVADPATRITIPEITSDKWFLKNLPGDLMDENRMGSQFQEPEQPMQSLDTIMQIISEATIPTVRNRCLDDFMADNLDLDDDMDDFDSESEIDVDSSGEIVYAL

[3] = biological target: T3, SnRK2.6-nLUC (Arabidopsis thaliana) (UniProt Q940H6); experiment: as above
T3 sequence: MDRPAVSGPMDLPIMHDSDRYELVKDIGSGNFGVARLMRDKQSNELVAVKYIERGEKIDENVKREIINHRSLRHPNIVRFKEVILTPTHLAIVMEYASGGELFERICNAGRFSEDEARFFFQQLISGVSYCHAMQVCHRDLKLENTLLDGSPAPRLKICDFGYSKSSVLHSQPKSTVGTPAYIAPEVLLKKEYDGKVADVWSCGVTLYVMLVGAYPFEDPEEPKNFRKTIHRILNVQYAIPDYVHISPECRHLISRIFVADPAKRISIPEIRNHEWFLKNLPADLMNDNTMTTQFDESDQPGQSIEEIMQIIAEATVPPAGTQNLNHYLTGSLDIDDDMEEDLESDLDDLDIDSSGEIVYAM

[4] = biological target: T4, SnRK2.2 fused to the GAL4 BD (Arabidopsis thaliana) (UniProt Q39192); experiment: two-hybrid; NUA or ESD4 on the GAL4 AD (pGADT7), SnRK2s on the GAL4 BD (pGBKT7), co-transformed into S. cerevisiae AH109; growth on -Leu/-Trp/-His (with 3-AT) or -Leu/-Trp/-His/-Ade
T4 sequence: T2 sequence

[5] = biological target: T1, SnRK2.3-nLUC (Arabidopsis thaliana); experiment: split reporter; split-luciferase complementation (LCI): cLUC and nLUC fusions co-infiltrated by A. tumefaciens GV3101 into N. benthamiana leaves; LUC signal with 1 mM D-luciferin about 2 days after infiltration; remark: listed apart in the source
[6] = biological target: T2, SnRK2.2-nLUC (Arabidopsis thaliana); experiment: as above; remark: listed apart in the source
[7] = biological target: T3, SnRK2.6-nLUC (Arabidopsis thaliana); experiment: as above; remark: listed apart in the source

cLUC-NUA (from UniProt A4GSN8 1-2093)
binding [1]: binds
binding [2]: binds
binding [3]: binds

B1: EARLY IN SHORT DAYS 4 (ESD4) SUMO protease fused to the GAL4 AD (enzyme, UniProt Q94F30 1-489)
chain: MGAVAINRKRSDESFNFINQQSTNPLRNSPYFQASKKRRFSFAMSEDSGKPASSNPTISRISRYPDAKAPLRREIHAPSRGILRYGKAKSNDYCEKDANFFVRKYDDAKRSALEALRFVNKGKDFVDLGDEVEKEEVVSDDSSVQAIEVIDCDDDEEKKNLQPSFSSGVTDVKKGENFRVEDTSMMLDSLSLDRDVDNDASSLEAYRKLMQSAEKRNSKLEALGFEIVLNEKKLSLLRQSRPKTVEKRVEVPREPFIPLTEDEEAEVYRAFSGRNRRKVLATHENSNIDITGEVLQCLTPSAWLNDEVINVYLELLKERETREPKKYLKCHYFNTFFYKKLVSDSGYNFKAVRRWTTQRKLGYALIDCDMIFVPIHRGVHWTLAVINNRESKLLYLDSLNGVDPMILNALAKYMGDEANEKSGKKIDANSWDMEFVEDLPQQKNGYDCGMFMLKYIDFFSRGLGLCFSQEHMPYFRLRTAKEILRLRAD
binding [4]: binds

B2: cLUC-ESD4 (enzyme, UniProt Q94F30 1-489)
chain: B1 chain
binding [5]: binds weakly
binding [6]: binds weakly
binding [7]: binds weakly
